From the RNAGym collection of RNA variant scans (doi:10.7554/elife.90254)
Read counts are not given, so values of variants with three or more changes are uncertain.

B1: LINE1-mini (parent)
chain: GGCAGAGCUCAACACAGCGUGGCAAAGUGGCUGUGGCUAGACUGCC

Variants of: B1
Experiment: self-cleavage, relative activity (ratio to wild type); higher = more cleavage; in vitro, sequencing; the parent is a self-cleaving ribozyme
GGCAGAGCUCAACACAGCGUGCUAAAGUGGCUGUUGCUAGACUGCC [G22C C23U G35U] showed a self-cleavage of 0.29.
GGCAGAGCUCAACACAGCGUGACAAAUUGGCUUUCGCUAGACUGCC [G22A G27U G33U G35C] showed a self-cleavage of 0.05.
GGCAGAGCUCAACACAGCGUGUCUAAGUGGCUGUGGCUAGGCUGCC [G22U A24U A41G] showed a self-cleavage of 0.13.
GGCAGAGCUCAACACAGCGUGACAAAUUGGCUGUGGCUAGACUACC [G22A G27U G44A] gave a self-cleavage of 0.37.
Work on GGCAGAGCUCAACACAGCGUGCCAAAGUGUCUGUGGUUAGACUGCC [G22C G30U C37U] yielded a self-cleavage of 0.06.
GGCAGAGCUCAACACAGCGUGACAAAGUGGCUAAGGCUAGCUUGCC [G22A G33A U34A A41C C42U] showed a self-cleavage of 0.03.
GGCAGAGCUCAACACAGCGUGACAAAAUGGCUGUGGCGAGACUGCC [G22A G27A U38G] showed a self-cleavage of 0.02.
Work on GGCAGAGCUCAACACAGCGUGCCACAGGGGCUGUGGAUAGACUGCC [G22C A25C U28G C37A] yielded a self-cleavage of 0.01.
GGCAGAGCUCAACACAGCGUGCCAAAGUGGCCGUAGCUAGACUGCC [G22C U32C G35A] showed a self-cleavage of 0.12.
GGCAGAGCUCAACACAGCGUGACAAAGUGGCUUUGGCUAGACAGCC [G22A G33U U43A] showed a self-cleavage of 0.12.
GGCAGAGCUCAACACAGCGUGACAAAUUUGUUGUGGCUAGACUGGC [G22A G27U G29U C31U C45G] showed a self-cleavage of 0.76.
GGCAGAGCUCAACACAGCGUGCAAAUGUGGCUGUGGCUAGACUGCC [G22C C23A A26U] gave a self-cleavage of 0.38.
With GGCAGAGCUCAACACAGCGUGCCAAAGUAGCCGUGGCUAGACUGCU [G22C G29A U32C C46U] the self-cleavage was 0.04.
For GGCAGAGCUCAACACAGCGUGCCAAAGUGUCUGUGGUUACACUGCA [G22C G30U C37U G40C C46A], the self-cleavage was 0.02.
For GGCAGAGCUCAACACAGCGUGCCAAAGUGUCUGUGGCUUGACUGCC [G22C G30U A39U], the self-cleavage was 0.14.
Work on GGCAGAGCUCAACACAGCGUGCCAAAGCGGCUUUGGCUAGACUGCC [G22C U28C G33U] yielded a self-cleavage of 0.08.
For GGCAGAGCUCAACACAGCGUGACAAAUUGGCUGUGGCUAGACUGAC [G22A G27U C45A], the self-cleavage was 0.36.
GGCAGAGCUCAACACAGCGUGACAAAGCGGCUGUGGAUAGACUGCC [G22A U28C C37A] gave a self-cleavage of 0.02.
GGCAGAGCUCAACACAGCGUGCCAAAGUGGCUGUGGUUAGACUGCA [G22C C37U C46A] showed a self-cleavage of 0.05.
GGCAGAGCUCAACACAGCGUGCCAAAGUCGCUGUGGCUGGACUGCC [G22C G29C A39G] gave a self-cleavage of 0.08.
In the case of GGCAGAGCUCAACACAGCGUGCCAAAGUGGCUGUGGCUAGCCUGUG [G22C A41C C45U C46G], the self-cleavage is reported as 0.11.
Variant GGCAGAGCUCAACACAGCGUGCCGAAGUGGCUGUGGAUAGACUCCC [G22C A24G C37A G44C] has a self-cleavage of 0.05.
In the case of GGCAGAGCUCAACACAGCGUGACAAAGUGGCUGUUGCAAGACUGCC [G22A G35U U38A], the self-cleavage is reported as 0.09.
Work on GGCAGAGCUCAACACAGCGUGACAAAGUGGCUUUGGCUAGAAUGCC [G22A G33U C42A] yielded a self-cleavage of 0.08.
For GGCAGAGCUCAACACAGCGUGACAAAGUUGCGGUUGCCAGACUGCC [G22A G29U U32G G35U U38C], the self-cleavage was 0.01.
For GGCAGAGCUCAACACAGCGUGCCAGAGUGGCAGUGGCUAGCCGGCC [G22C A25G U32A A41C U43G], the self-cleavage was 0.01.
Work on GGCAGAGCUCAACACAGCGUGACAAAGUCGCUGUGGGUAGACUGCC [G22A G29C C37G] yielded a self-cleavage of 0.
For GGCAGAGCUCAACACAGCGUGCCAAAGCGGCUGUGGUUAGACUGCC [G22C U28C C37U], the self-cleavage was 0.02.
Work on GGCAGAGCUCAACACAGCGUGCCAAAGCGGCUGUGGAUAGACUGCC [G22C U28C C37A] yielded a self-cleavage of 0.03.
Variant GGCAGAGCUCAACACAGCGUGACAAAGUGGCUGAGGCUAGAUUGCC [G22A U34A C42U] has a self-cleavage of 0.06.
GGCAGAGCUCAACACAGCGUGCAAAAGUAGCUGUGGAUAGACUGCC [G22C C23A G29A C37A] showed a self-cleavage of 0.01.
GGCAGAGCUCAACACAGCGUGCCAAAGUGACUCUGGCUAGACUGUC [G22C G30A G33C C45U] showed a self-cleavage of 0.06.
GGCAGAGCUCAACACAGCGUGCCAAAGUGGCUGUGACUAGACUUCC [G22C G36A G44U] showed a self-cleavage of 0.1.
In the case of GGCAGAGCUCAACACAGCGUGCCAAAGUGGCUGUGGCUAGAGUGUC [G22C C42G C45U], the self-cleavage is reported as 0.03.
GGCAGAGCUCAACACAGCGUGACAAAGUGGCUGUGGCUAUAAUGCC [G22A G40U C42A] gave a self-cleavage of 0.17.
Work on GGCAGAGCUCAACACAGCGUGACAAAGUGGCUGAUGCUAGAGUGCC [G22A U34A G35U C42G] yielded a self-cleavage of 0.02.
With GGCAGAGCUCAACACAGCGUGACAAAUUGGAUGUGGCUAGACUGCC [G22A G27U C31A] the self-cleavage was 0.74.
In the case of GGCAGAGCUCAACACAGCGUGACAAAGUGGCUGUGGCUAGACUUGC [G22A G44U C45G], the self-cleavage is reported as 0.08.
For GGCAGAGCUCAACACAGCGUGACAAAGUACCUGUGGUUAGACUGCC [G22A G29A G30C C37U], the self-cleavage was 0.04.
With GGCAGAGCUCAACACAGCGUGCCAAAGUGGCUGUGUCUAGACUGUC [G22C G36U C45U] the self-cleavage was 0.06.
GGCAGAGCUCAACACAGCGUGCCAAAGUGGCUGUGGCAGGACUGCC [G22C U38A A39G] gave a self-cleavage of 0.12.
For GGCAGAGCUCAACACAGCGUGACAAAGUGUCUGUGGCUAUACUGCA [G22A G30U G40U C46A], the self-cleavage was 0.16.
With GGCAGAGCUCAACACAGCGUGCCAAAGUGGCUGUCGCUAGACGGCC [G22C G35C U43G] the self-cleavage was 0.04.
With GGCAGAGCUCAACACAGCGUGACAAAGUGGCUGUGUCUAGACUGCA [G22A G36U C46A] the self-cleavage was 0.04.
Variant GGCAGAGCUCAACACAGCGUGCCAAAUUGGCUGUGGCUAAACUGCC [G22C G27U G40A] has a self-cleavage of 0.1.
In the case of GGCAGAGCUCAACACAGCGUGCCAAUGUGGCUGUGGCUAGAUUGCC [G22C A26U C42U], the self-cleavage is reported as 0.03.
With GGCAGAGCUCAACACAGCGUGCCAGAGUGGCUGUGGCGAGACUGCC [G22C A25G U38G] the self-cleavage was 0.01.
GGCAGAGCUCAACACAGCGUGCCAAAGUAGCUGUGGCCAGACUGCC [G22C G29A U38C] gave a self-cleavage of 0.34.
Variant GGCAGAGCUCAACACAGCGUGACAAAGUGGCUGUGACUAGACAGCC [G22A G36A U43A] has a self-cleavage of 0.16.
GGCAGAGCUCAACACAGCGUGCCAAAGCGGAUAUUGCUAGACUGCC [G22C U28C C31A G33A G35U] showed a self-cleavage of 0.08.
GGCAGAGCUCAACACAGCGUGACAAAGUGUCUGUGGCUAAACUGCC [G22A G30U G40A] showed a self-cleavage of 0.06.
With GGCAGAGCUCAACACAGCGUGACAAAGUGGCUAUUGCAAGACUGCC [G22A G33A G35U U38A] the self-cleavage was 0.04.
GGCAGAGCUCAACACAGCGUGACAAAGUGGCUGUGCCUAGACUUCC [G22A G36C G44U] showed a self-cleavage of 0.06.
With GGCAGAGCUCAACACAGCGUGACAAAGAGGCUGUGGCUCGACUGCC [G22A U28A A39C] the self-cleavage was 0.02.
In the case of GGCAGAGCUCAACACAGCGUGCCAAAGUGGCUGUGGCUAAUCUGCU [G22C G40A A41U C46U], the self-cleavage is reported as 0.08.
Work on GGCAGAGCUCAACACAGCGUGACAAAGUGGCUCUGGCUACAUAGCC [G22A G33C G40C C42U U43A] yielded a self-cleavage of 0.01.
